This note sets out measurements from US20230331822A1 (published 2023).

The target of assay [1] is T1, HCoV-OC43 Spike protein, full length, C-terminally fused with EGFP (HCoV-OC43, UniProt P36334 14-1353).
T1 construct: whole, on cells
T1 sequence: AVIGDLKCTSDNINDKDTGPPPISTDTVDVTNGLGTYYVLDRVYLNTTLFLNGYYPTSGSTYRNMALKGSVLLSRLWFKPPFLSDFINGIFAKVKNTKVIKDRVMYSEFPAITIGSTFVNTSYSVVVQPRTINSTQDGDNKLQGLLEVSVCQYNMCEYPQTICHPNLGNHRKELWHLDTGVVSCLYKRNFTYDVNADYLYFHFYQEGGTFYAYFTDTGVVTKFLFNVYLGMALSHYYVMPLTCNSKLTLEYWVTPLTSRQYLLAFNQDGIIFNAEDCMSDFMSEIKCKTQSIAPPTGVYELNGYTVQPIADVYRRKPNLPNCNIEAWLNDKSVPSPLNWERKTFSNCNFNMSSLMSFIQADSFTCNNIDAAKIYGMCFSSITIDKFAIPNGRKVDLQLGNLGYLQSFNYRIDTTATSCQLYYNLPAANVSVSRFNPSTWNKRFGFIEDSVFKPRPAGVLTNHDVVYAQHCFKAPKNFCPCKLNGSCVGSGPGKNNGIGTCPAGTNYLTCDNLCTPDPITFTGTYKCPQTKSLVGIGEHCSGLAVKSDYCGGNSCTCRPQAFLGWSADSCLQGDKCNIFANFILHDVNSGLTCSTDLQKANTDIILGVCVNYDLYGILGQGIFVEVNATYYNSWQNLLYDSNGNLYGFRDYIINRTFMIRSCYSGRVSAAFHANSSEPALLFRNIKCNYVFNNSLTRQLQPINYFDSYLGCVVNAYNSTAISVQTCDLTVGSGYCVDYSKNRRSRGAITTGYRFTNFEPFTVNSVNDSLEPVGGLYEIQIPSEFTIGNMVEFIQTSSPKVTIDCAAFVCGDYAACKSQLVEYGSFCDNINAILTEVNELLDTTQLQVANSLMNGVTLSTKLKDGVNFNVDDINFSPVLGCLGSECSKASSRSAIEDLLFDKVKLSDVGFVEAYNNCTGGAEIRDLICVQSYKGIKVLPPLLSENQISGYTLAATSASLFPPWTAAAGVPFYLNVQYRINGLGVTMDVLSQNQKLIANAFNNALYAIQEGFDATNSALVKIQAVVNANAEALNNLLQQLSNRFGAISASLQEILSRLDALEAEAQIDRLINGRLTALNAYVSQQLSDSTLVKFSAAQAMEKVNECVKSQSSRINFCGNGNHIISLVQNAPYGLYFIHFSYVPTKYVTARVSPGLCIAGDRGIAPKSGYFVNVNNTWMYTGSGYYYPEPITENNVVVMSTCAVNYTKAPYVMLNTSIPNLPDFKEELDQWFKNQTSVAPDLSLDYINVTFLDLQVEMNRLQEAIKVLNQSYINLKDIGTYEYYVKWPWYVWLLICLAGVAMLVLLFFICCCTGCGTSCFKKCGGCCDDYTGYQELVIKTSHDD
The assay is described as follows: flow cytometry, HEK293 cells expressing full-length Spike-EGFP, anti-hIg-PE. In general terms: A flow cytometer gives signals particle by particle.

Assay [2] has as its target T2, HCoV-229E Spike protein, full length, C-terminally fused with EGFP (HCoV-229E, UniProt P15423 16-1173).
T2 construct: whole, on cells
T2 sequence: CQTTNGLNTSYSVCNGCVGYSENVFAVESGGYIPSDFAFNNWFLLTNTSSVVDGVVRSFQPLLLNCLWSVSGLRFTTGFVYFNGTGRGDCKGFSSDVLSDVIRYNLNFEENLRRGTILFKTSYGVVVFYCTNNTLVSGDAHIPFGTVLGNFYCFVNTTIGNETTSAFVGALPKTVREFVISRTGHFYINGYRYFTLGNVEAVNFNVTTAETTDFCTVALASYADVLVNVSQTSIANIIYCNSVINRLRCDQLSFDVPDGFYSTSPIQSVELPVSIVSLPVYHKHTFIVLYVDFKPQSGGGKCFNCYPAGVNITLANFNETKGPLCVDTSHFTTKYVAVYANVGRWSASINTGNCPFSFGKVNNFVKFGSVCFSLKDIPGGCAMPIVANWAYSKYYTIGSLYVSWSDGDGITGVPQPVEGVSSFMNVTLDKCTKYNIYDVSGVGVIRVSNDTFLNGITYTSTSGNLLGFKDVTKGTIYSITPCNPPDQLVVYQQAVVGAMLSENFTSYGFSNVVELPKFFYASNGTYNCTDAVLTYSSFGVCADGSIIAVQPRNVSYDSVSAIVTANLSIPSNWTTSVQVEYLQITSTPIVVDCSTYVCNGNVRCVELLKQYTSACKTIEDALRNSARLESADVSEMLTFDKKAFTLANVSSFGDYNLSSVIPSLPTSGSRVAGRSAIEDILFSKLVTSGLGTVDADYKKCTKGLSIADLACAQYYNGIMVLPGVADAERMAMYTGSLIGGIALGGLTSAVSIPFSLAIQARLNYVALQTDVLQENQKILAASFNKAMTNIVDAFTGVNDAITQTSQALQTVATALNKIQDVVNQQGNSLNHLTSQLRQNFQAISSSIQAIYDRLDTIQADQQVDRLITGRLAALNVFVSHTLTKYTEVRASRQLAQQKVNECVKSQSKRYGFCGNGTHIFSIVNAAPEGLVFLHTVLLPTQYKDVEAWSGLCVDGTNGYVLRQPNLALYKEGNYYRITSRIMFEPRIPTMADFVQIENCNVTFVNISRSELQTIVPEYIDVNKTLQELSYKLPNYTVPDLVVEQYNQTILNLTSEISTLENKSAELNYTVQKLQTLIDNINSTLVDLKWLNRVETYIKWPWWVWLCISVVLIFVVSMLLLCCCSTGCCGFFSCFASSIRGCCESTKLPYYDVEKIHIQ
Described as above.

B1: COV2-143-4-Fc (Fc fusion)
chain: QLQLVESGGDLVQPGESLRLSCVASGLTLNNNTIGWFRQAPGKEREGVSCISPSGIVTSYADSVRGRFTISRENAKNAVYLEMNSLKPEDTAVYYCAVLQWNGAGLPSPLGSWGQGTQVTVSS[human IgG1 Fc with changes not listed]
Turning to B1, the binding result in assay [1] and in assay [2] was “no binding” each time.

B2: COV2-237-13-Fc (Fc fusion)
chain: QLQLVESGGDLVQPGESLRLSCVASFKSYHIAWIGWFRQAPGKEREGVSCSLTGASITSYADSVRGRFTISRENAKNAVYLEMNSLKPEDTAVYYCAARDYASSLYCSRNEAMYAYWGQGTQVTVSS[human IgG1 Fc with changes not listed]
Consider B2, for which the binding result in assay [1] and in assay [2] was “no binding” in each case.

B3: COV2-353-14-Fc (Fc fusion)
chain: QLQLVESGGDLVQPGESLRLSCVASGFRLGGYAIGWFRQAPGKEREGVSCISGSGIISSYADSVRGRFTISRENAKNAVYLEMNSLKPEDTAVYYCAAPSGSSYGSRRLPCGIDSQDYQTWGQGTQVTVSS[human IgG1 Fc with changes not listed]
For the molecule B3, the binding result in assay [1] and in assay [2] was “no binding” in each case.

B4: COV2-356-6-Fc (Fc fusion)
chain: QLQLVESGGDLVQPGESLRLSCVASGFTLGNYAIGWFRQAPGKEREGVSCISLSGDIISYADSVRGRFTISRENAKNAVYLEMNSLKPEDTAVYYCAAPFPSLLYCSLCPSNPEFCRHWGQGTQVTVSS[human IgG1 Fc with changes not listed]
As for B4, the binding result in assay [1] and in assay [2] was “no binding” each time.

B5: COV2-115-7-Fc (Fc fusion)
chain: QLQLVESGGDLVQPGESLRLSCVASGFSLDGYAIGWFRQAPGKEREGVSCIGRLGTTTSYADSVRGRFTISRENAKNAVYLEMNSLKPEDTAVYYCAAKRSTWFGCSTLDDYDYWGQGTQVTVSS[human IgG1 Fc with changes not listed]
For the molecule B5, the binding result in assay [1] and in assay [2] was “no binding” each time.

B6: COV2-122-10-Fc (Fc fusion)
chain: QLQLVESGGDLVQPGESLRLSCVASGATSDIYAIGWFRQAPGKEREGVSCISPSGGSTSYADSVRGRFTISRENAKNAVYLEMNSLKPEDTAVYYCAAASPSWHYCSGYEHEYDDWGQGTQVTVSS[human IgG1 Fc with changes not listed]
B6: the binding result in assay [1] and in assay [2] was “no binding” each time.

B7: COV2-121-15-Fc (Fc fusion)
chain: QLQLVESGGDLVQPGESLRLSCVASFDDFAIGWIGWFRQAPGKEREGVSCSARGIVNTSYADSVRGRFTISRENAKNAVYLEMNSLKPEDTAVYYCAALVGLNDRSLPHEAEEYDYWGQGTQVTVSS[human IgG1 Fc with changes not listed]
As to B7, the binding result in assay [1] and in assay [2] was “no binding” throughout.

B8: COV2-22-8-Fc (Fc fusion)
chain: QLQLVESGGDLVQPGESLRLSCVASGFTLDRYAIGWFRQAPGKEREGVSCISSGGTTSYADSVRGRFTISRENAKNAVYLEMNSLKPEDTAVYYCAAGTQLRYGCSRQARRYDYWGQGTQVTVSS[human IgG1 Fc with changes not listed]
As for B8, the binding result in assay [1] and in assay [2] was “no binding” each time.

B9: COV2-324-16-Fc (Fc fusion)
chain: QLQLVESGGDLVQPGESLRLSCVASGFTFDDYSIGWFRQAPGKEREGVSCFSSLDGSTSYADSVRGRFTISRENAKNAVYLEMNSLKPEDTAVYYCAATRGSSWYWYRPSEYDYWGQGTQVTVSS[human IgG1 Fc with changes not listed]
Take B9: the binding result in assay [1] and in assay [2] was “no binding” in each case.

B10: COV2-136-12-Fc (Fc fusion)
chain: QLQLVESGGDLVQPGESLRLSCVASGFTFHYYAIGWFRQAPGKEREGVSCISSGGGRTSYADSVRGRFTISRENAKNAVYLEMNSLKPEDTAVYYCAALQGSLHYCSGLVGEYEYWGQGTQVTVSS[human IgG1 Fc with changes not listed]
Take B10: the binding result in assay [1] and in assay [2] was “no binding” throughout.

B11: COV2-13-5-Fc (Fc fusion)
chain: QLQLVESGGDLVQPGESLRLSCVASGFTLGNYEIGWFRQAPGKEREGVSCISRSGVIFSYADSVRGRFTISRENAKNAVYLEMNSLKPEDTAVYYCAARFRAGLVQSLCQSTPEFYQDWGQGTQVTVSS[human IgG1 Fc with changes not listed]
In the case of B11, the binding result in assay [1] and in assay [2] was “no binding” in each case.
